Results published in patent US20210246179A1.

What was measured:
[1] = target: Aβ3-42-Pyro (human), P05067; experiment: ELISA
[2] = target: N-truncated Aβ11-42 (human), P05067; experiment: ELISA
[3] = target: Aβ11-42-Pyro (human), P05067; experiment: ELISA
[4] = target: Human TauK18P301L fragment (human) (UniProt P10636); experiment: ELISA
[5] = target: Human TauK18P301L fragment (human) (UniProt P10636); experiment: ELISA on plate-coated fibers; the column head prints 'fTauKL Binding (nM)'
[6] = target: Aβ1-42-E22Q (Dutch mutation) (human), P05067; experiment: ELISA

UniProt P10636, sequence (P10636 561-689 P618L limits assumed): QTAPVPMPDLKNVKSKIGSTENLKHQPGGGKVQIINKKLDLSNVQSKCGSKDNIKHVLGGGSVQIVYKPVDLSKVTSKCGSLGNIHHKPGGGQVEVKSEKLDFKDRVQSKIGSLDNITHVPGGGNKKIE

Binder	EC50 [1]	EC50 [2]	EC50 [3]	EC50 [4]	EC50 [5]	EC50 [6]
PB108 (open-stabilized GAIM-Ig fusion protein) (Fc fusion) MAETVESCLAKPHTENSFTNVWKEGDSRYANYEGCLWNAGGVVVCTGDETQCYGHWVPIGLAIPENEGGGSEGGGSEGGGSEGGGTKPPEYGDTPIPGYTYINPLDGTYPPGTEQNPANPNPSLEESQPLNTFMFQGNRFRNRQGALTVYTGTFTQGTDPVKTYYQYTPVSSRAMYDAYWNGKFRDCAFHSGFNEDPFVCEYQGQSSDLPQPPANAGGESGGGSGGGSEGGGSEGGGSEGGGSEGGGSGGGSGSGARS[letters of human IgG1 Fc not shown]	1.1 nM	0.9 nM	1.9 nM	14 nM	15 nM	–
PB122 (open-stabilized GAIM-Ig fusion protein) (Fc fusion) MAETVESCLAKPHTENSFTNVWKEGDSRYANYEGCLWNAGGVVVCTGDETQCYGHWVPIGLAIPENEGGGSEGGGSEGGGSEGGGTKPPEYGDTPIPGYTYINPLDGTYPPGTEQNPANPNPSLEESQPLNTFMFQNNRFRNVNGVLTVYTGTFTQGTDPVKTYYQYTPVSSRAMYDAYWNGKFRDCAFHSGFNEDPFVCEYQGQSSDLPQPPANAGGESGGGSGGGSEGGGSEGGGSEGGGSEGGGSGGGSGSGARS[letters of human IgG1 Fc not shown]	–	–	–	–	24 nM	–
PB116 (open-stabilized GAIM-Ig fusion protein) (Fc fusion) MAETVESCLAKPHTENSFTNVWKEGDSRYANYEGCLWNAGGVVVCTGDETQCYGHWVPIGLAIPENEGGGSEGGGSEGGGSEGGGTKPPEYGDTPIPGYTYINPLDGTYPPGTEQNPANPNPSLEESQPLNTFMFQGNRFRARQGALTVYTGTFTQGTDPVKTYYQYTPVSSRAMYDAYWNGKFRDCAFHSGFNEDPFVCEYQGQSSDLPQPPANAGGESGGGSGGGSEGGGSEGGGSEGGGSEGGGSGGGSGSGARS[letters of human IgG1 Fc not shown]	–	–	–	–	7 nM	–
PB114 (open-stabilized GAIM-Ig fusion protein) (Fc fusion) MAETVESCLAKPHTENSFTNVWKEGDSRYANYEGCLWNAGGVVVCTGDETQCYGHWVPIGLAIPENEGGGSEGGGSEGGGSEGGGTKPPEYGDTPIPGYTYINPLDGTYPPGTEQNPANPNPSLEESQPLNTFMFQNNRFRAVNGVLTVYTGTFTQGTDPVKTYYQYTPVSSRAMYDAYWNGKFRDCAFHSGFNEDPFVCEYQGQSSDLPQPPANAGGESGGGSGGGSEGGGSEGGGSEGGGSEGGGSGGGSGSGARS[letters of human IgG1 Fc not shown]	–	–	–	–	8.7 nM	–
PB109 (open-stabilized GAIM-Ig fusion protein) (Fc fusion) MAETVESCLAKPHTENSFTNVWKEGDSRYANYEGCLWNAGGVVVCTGDEHQCYGTWVPIGLAIPENEGGGSEGGGSEGGGSEGGGTKPPEYGDTPIPGYTYINPLDGTYPPGTEQNPANPNPSLEESQPLNTFMFQGNRFRARQGALTVYTGTFTQGTDPVKTYYQYTPVSSRAMYDAYWNGKFRDCAFHSGFNEDPFVCEYQGQSSDLPQPPANAGGESGGGSGGGSEGGGSEGGGSEGGGSEGGGSGGGSGSGARS[letters of human IgG1 Fc not shown]	–	–	–	–	5.2 nM	–
PB110 (open-stabilized GAIM-Ig fusion protein) (Fc fusion) MAETVESCLAKPHTENSFTNVWKEGDSRYANYEGCLWNAGGVVVCTGDEHQCYGTWVPIGLAIPENEGGGSEGGGSEGGGSEGGGTKPPEYGDTPIPGYTYINPLDGTYPPGTEQNPANPNPSLEESQPLNTFMFQNNRFRAVNGVLTVYTGTFTQGTDPVKTYYQYTPVSSRAMYDAYWNGKFRDCAFHSGFNEDPFVCEYQGQSSDLPQPPANAGGESGGGSGGGSEGGGSEGGGSEGGGSEGGGSGGGSGSGARS[letters of human IgG1 Fc not shown]	–	–	–	–	7.6 nM	–
PB120 (GAIM scaffold; GAIM-Ig fusion protein) (Fc fusion) MAETVESCLAKPHTENSFTNVWKDDKTLDRYANYEGCLWNAGGVVVCTGDETQCYGTWVPIGLAIPENEGGGSEGGGSEGGGSEGGGTKPPEYGDTPIPGYTYINPLDGTYPPGTEQNPANPNPSLEESQPLNTFMFQNNRFRNRQGALTVYTGTFTQGTDPVKTYYQYTPVSSRAMYDAYWNGKFRDCAFHSGFNEDPFVCEYQGQSSDLPQPPANAGGESGGGSGGGSEGGGSEGGGSEGGGSEGGGSGGGSGSGARS[letters of human IgG1 Fc not shown]	24.1 nM	24.3 nM	40.6 nM	59 nM	–	21.9 nM
